Experimental data as given in the supplement of paper PMC8728848.
Some of the results follow.

Key:
Experiment in all cases: glycan array binding signal (z-score within array); higher = stronger binding
Details in all cases: glycan notation: IUPAC condensed, linker removed
[1] = target: Fuc(a1-2)[GalNAc(a1-3)]Gal(b1-4)GlcNAc(b1-3)GalNAc
In short: (§1)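 Arrays were curated from the Consortium for Functional Glycomics database, 3228 in total, and kept only where the protein sequence was available. Binding is expressed as a within-array Z-score. This score was averaged across arrays of the same protein sequence at different concentrations or buffers and across linkers, and negative values can be read as non-binding.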

[2] = target: Fuc(a1-2)[GalNAc(a1-3)]Gal(b1-4)GlcNAc(b1-3)[Fuc(a1-2)[GalNAc(a1-3)]Gal(b1-4)GlcNAc(b1-6)]GalNAc
In short: as §1

[3] = target: Fuc(a1-2)[GalNAc(a1-3)]Gal(b1-4)GlcNAc(b1-6)GalNAc
In short: as §1

[4] = target: Fuc(a1-2)[GalNAc(a1-3)]Gal(b1-4)[Fuc(a1-3)]GlcNAc
In short: as §1

[5] = target: Fuc(a1-2)[GalNAc(a1-3)]Gal(b1-4)[Fuc(a1-3)]GlcNAc(b1-3)GalNAc
In short: as §1

[6] = target: Fuc(a1-2)[GalNAc(a1-4)]Gal(b1-4)GlcNAc
In short: as §1

[7] = target: Fuc(a1-2)[GalNAc(b1-3)]Gal
In short: as §1

[8] = target: Fuc(a1-3)GlcNAc
In short: as §1

[9] = target: Fuc(a1-3)[Gal(b1-4)]Glc6S
In short: as §1

[10] = target: Fuc(a1-3)[Gal(b1-4)]GlcNAc
In short: as §1

[11] = target: Fuc(a1-3)[Gal(b1-4)]GlcNAc(b1-2)Man
In short: as §1

[12] = target: Fuc(a1-3)[Gal(b1-4)]GlcNAc(b1-2)Man(a1-3)[Fuc(a1-3)[Gal(b1-4)]GlcNAc(b1-2)Man(a1-6)]Man(b1-4)GlcNAc(b1-4)GlcNAc
In short: as §1

[13] = target: Fuc(a1-3)[Gal(b1-4)]GlcNAc(b1-2)Man(a1-3)[Fuc(a1-3)[Gal(b1-4)]GlcNAc(b1-2)Man(a1-6)]Man(b1-4)GlcNAc(b1-4)[Fuc(a1-6)]GlcNAc
In short: as §1

[14] = target: Fuc(a1-3)[Gal(b1-4)]GlcNAc(b1-3)Gal(b1-3)[Fuc(a1-4)]GlcNAc
In short: as §1

[15] = target: Fuc(a1-3)[Gal(b1-4)]GlcNAc(b1-3)Gal(b1-4)[Fuc(a1-3)]GlcNAc
In short: as §1

[16] = target: Fuc(a1-3)[Gal(b1-4)]GlcNAc(b1-3)Gal(b1-4)[Fuc(a1-3)]GlcNAc(b1-3)Gal(b1-4)[Fuc(a1-3)]GlcNAc
In short: as §1

[17] = target: Fuc(a1-3)[Gal(b1-4)]GlcNAc(b1-3)GalNAc
In short: as §1

[18] = target: Fuc(a1-3)[Gal(b1-4)]GlcNAc(b1-4)Gal(b1-4)[Fuc(a1-3)]GlcNAc
In short: as §1

[19] = target: Fuc(a1-3)[Gal(b1-4)]GlcNAc(b1-4)Gal(b1-4)[Fuc(a1-3)]GlcNAc(b1-4)Gal(b1-4)[Fuc(a1-3)]GlcNAc
In short: as §1

[20] = target: Fuc(a1-3)[Gal(b1-4)]GlcNAc(b1-6)GalNAc
In short: as §1

[21] = target: Fuc(a1-3)[Gal(b1-4)]GlcNAc(b1-6)[Gal(b1-3)GlcNAc(b1-3)]Gal(b1-4)Glc
In short: as §1

[22] = target: Fuc(a1-3)[Gal(b1-4)]GlcNAc(b1-6)[Neu5Ac(a2-3)Gal(b1-3)]GalNAc
In short: as §1

[23] = target: Fuc(a1-3)[Gal(b1-4)]GlcNAc6S
In short: as §1

[24] = target: Fuc(a1-3)[Gal3S(b1-4)]Glc
In short: as §1

[25] = target: Fuc(a1-3)[Gal3S(b1-4)]GlcNAc
In short: as §1

[26] = target: Fuc(a1-3)[Gal3S(b1-4)]GlcNAc6S
In short: as §1

[27] = target: Fuc(a1-3)[GalNAc(b1-4)]GlcNAc
In short: as §1

[28] = target: Fuc(a1-3)[GalNAc(b1-4)]GlcNAc6S
In short: as §1

[29] = target: Fuc(a1-3)[GalNAc3S(b1-4)]GlcNAc
In short: as §1

[30] = target: Fuc(a1-4)GlcNAc
In short: as §1

[31] = target: Fuc(b1-3)GlcNAc
In short: as §1

[32] = target: Gal(a1-2)Gal
In short: as §1

[33] = target: Gal(a1-3)Gal
In short: as §1

[34] = target: Gal(a1-3)Gal(b1-3)GlcNAc
In short: as §1

[35] = target: Gal(a1-3)Gal(b1-3)GlcNAc(b1-2)Man
In short: as §1

[36] = target: Gal(a1-3)Gal(b1-3)GlcNAc(b1-2)Man(a1-3)[Gal(a1-3)Gal(b1-3)GlcNAc(b1-2)Man(a1-6)]Man(b1-4)GlcNAc(b1-4)GlcNAc
In short: as §1

[37] = target: Gal(a1-3)Gal(b1-3)GlcNAc(b1-3)GalNAc
In short: as §1

B1: Siglec-7-SA-PE-180 (Homo sapiens), Q9Y286 (protein)
chain: MLLLLLLPLLWGRERVEGQKSNRKDYSLTMQSSVTVQEGMCVHVRCSFSYPVDSQTDSDPVHGYWFRAGNDISWKAPVATNNPAWAVQEETRDRFHLLGDPQTKNCTLSIRDARMSDAGRYFFRMEKGNIKWNYKYDQLSVNVTALTHRPNILIPGTLESGCFQNLTCSVPWACEQGTPPMISWMGTSVSPLHPSTTRSSVLTLIPQPQHHGTSLTCQVTLPGAGVTTNRTIQLNVSYPPQNLTVTVFQGEGTASTALGNSSSLSVLEGQSLRLVCAVDSNPPARLSWTWRSLTLYPSQPSNPLVLELQVHLGDEGEFTCRAQNSLGSQHVSLNLSLQQEYTGKMRPVSGVLLGAVGGAGATALVFLSFCVIFIVVRSCRKKSARPAADVGDIGMKDANTIRGSASQGNLTESWADDNPRHHGLAAHSSGEEREIQYAPLSFHKGEPQDLSGQEATNNEYSEIKIPK
glycan array binding signal (z-score) [1]: -0.233
glycan array binding signal (z-score) [2]: -0.555
glycan array binding signal (z-score) [3]: -0.164
glycan array binding signal (z-score) [4]: -0.148
glycan array binding signal (z-score) [5]: 10.7
glycan array binding signal (z-score) [6]: -0.276
glycan array binding signal (z-score) [7]: -0.267
glycan array binding signal (z-score) [8]: -0.212
glycan array binding signal (z-score) [9]: -0.097
glycan array binding signal (z-score) [10]: 0.023
glycan array binding signal (z-score) [11]: -0.036
glycan array binding signal (z-score) [12]: -0.013
glycan array binding signal (z-score) [13]: -0.036
glycan array binding signal (z-score) [14]: -0.326
glycan array binding signal (z-score) [15]: -0.205
glycan array binding signal (z-score) [16]: -0.524
glycan array binding signal (z-score) [17]: 0.299
glycan array binding signal (z-score) [18]: -0.456
glycan array binding signal (z-score) [19]: -0.484
glycan array binding signal (z-score) [20]: -0.159
glycan array binding signal (z-score) [21]: -0.172
glycan array binding signal (z-score) [22]: 0.032
glycan array binding signal (z-score) [23]: -0.192
glycan array binding signal (z-score) [24]: -0.086
glycan array binding signal (z-score) [25]: -0.046
glycan array binding signal (z-score) [26]: -0.186
glycan array binding signal (z-score) [27]: -0.069
glycan array binding signal (z-score) [28]: -0.045
glycan array binding signal (z-score) [29]: -0.158
glycan array binding signal (z-score) [30]: 0.988
glycan array binding signal (z-score) [31]: -0.145
glycan array binding signal (z-score) [32]: -0.097
glycan array binding signal (z-score) [33]: -0.332
glycan array binding signal (z-score) [34]: -0.363
glycan array binding signal (z-score) [35]: -0.201
glycan array binding signal (z-score) [36]: -0.122
glycan array binding signal (z-score) [37]: -0.49
